# Assay results as given in PubChem BioAssay AID596 (National Center for Advancing Translational Sciences (NCATS), 2007).
# The campaign covered roughly 71,000 compounds. About 1,400 (2%) were called active. Inconclusive results, whose numbers are uncertain, are shown with a selection of clear calls. Calls come from the whole dose curve; as a rule, active = well fitted curve in the direction sought with a large enough effect; inconclusive = small, poorly fitted or top-dose-only effect; inactive = no such curve, though single readings can be large or run the other way. A potency beside an inconclusive call is a rough fit, not a confirmed value.
# Molecular target: Microtubule-associated protein tau (Homo sapiens) (UniProt P10636)
# Assay: qHTS Assay for Tau Filament Binding;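 note: actives lower thioflavin S fluorescence by blocking filaments or displacing dye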
# Conditions: recombinant tau filaments, thioflavin S fluorescence, 15 h, filaments grown with octadecylsulfate alongside compound; series mostly up to 57.1 µM; activity change, negative = inhibition: at the top concentration
# How it was run: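 His-tagged recombinant human tau (exons 2, 3 and 10 included), 1 uM, was induced to fibrillize by 30 uM sodium octadecylsulfate with compound present. After 15 h at 37 C, thioflavine S fluorescence (ex 450, em 510 nm) was read.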
# % is set by controls: 0 for no effect and ±100 for the full control effect; potency is the fitted concentration of half-maximal effect.
# Sequence of UniProt P10636 (P10636 whole entry, looked up): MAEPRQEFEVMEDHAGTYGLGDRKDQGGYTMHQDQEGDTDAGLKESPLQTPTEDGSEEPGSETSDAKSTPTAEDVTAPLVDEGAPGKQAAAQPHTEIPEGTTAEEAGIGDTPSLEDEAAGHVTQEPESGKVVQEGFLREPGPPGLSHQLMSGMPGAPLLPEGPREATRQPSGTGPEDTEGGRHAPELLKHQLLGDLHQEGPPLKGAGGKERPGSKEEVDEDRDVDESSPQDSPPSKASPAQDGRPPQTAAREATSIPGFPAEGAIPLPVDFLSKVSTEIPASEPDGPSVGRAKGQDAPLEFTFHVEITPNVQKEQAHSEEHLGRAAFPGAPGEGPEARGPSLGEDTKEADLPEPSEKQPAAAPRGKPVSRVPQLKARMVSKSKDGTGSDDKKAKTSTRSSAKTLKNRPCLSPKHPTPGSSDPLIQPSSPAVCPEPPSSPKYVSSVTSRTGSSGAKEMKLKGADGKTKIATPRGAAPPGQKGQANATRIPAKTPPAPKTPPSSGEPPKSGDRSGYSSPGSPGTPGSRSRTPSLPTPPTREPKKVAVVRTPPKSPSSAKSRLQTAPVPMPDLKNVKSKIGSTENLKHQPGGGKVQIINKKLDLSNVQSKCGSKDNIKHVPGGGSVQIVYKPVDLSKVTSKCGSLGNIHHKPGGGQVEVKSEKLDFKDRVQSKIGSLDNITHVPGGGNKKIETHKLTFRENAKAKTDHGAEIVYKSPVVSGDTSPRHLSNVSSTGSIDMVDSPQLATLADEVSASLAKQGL
SMILES,Potency,"activity change, negative = inhibition"
C=C(C)COc1ccc(-c2[nH]ncc2-c2ccc(OC)c(OC)c2)c(O)c1,inconclusive: 20 µM [decreasing],
CCc1cc2c(c(CC)n1)CCC(=O)N2Cc1ccc(-c2ccccc2-c2nn[nH]n2)cc1,inconclusive: 39.8 µM [decreasing],
COc1ccc2cc3c(N)c(C(=O)N4CCCC4)sc3nc2c1,active: 20 µM,
COCCn1c(=N)c(C(=O)NCCc2ccccc2)cc2c(=O)n3cccc(C)c3nc21,active: 3.16 µM,
COc1cc2ccccc2cc1C(=O)Nc1ccc(N2CCN(C)CC2)cc1,active: 3.16 µM,
COc1ccc(OC)c(N=c2oc3c(OC)cccc3cc2C(=O)NCc2ccco2)c1,active: 0.794 µM,
C=C(CO)[C@H]1Cc2c(ccc3c2O[C@H]2COc4cc(OC)c(OC)cc4[C@@H]2C3=O)O1,inconclusive: 39.8 µM [decreasing],
CCOc1c(Cl)cc(C(=O)NCCN2CCCCC2)cc1Cl,inconclusive: 15.8 µM [decreasing],
Cc1cc(C)c2c(CC(=O)NCc3ccco3)coc2c1,,inactive: 0.7%
O=C(Nc1ccccc1)N1CCC2(CC1)CCN(C(=O)c1ccco1)CC2,,inactive: 5.1%
CC[C@@H](C)[C@H]1O[C@]2(CC[C@@H]1C)C[C@@H]1C[C@H](C/C=C(/C)[C@H](O[C@@H]3C[C@H](OC)[C@H](O[C@@H]4C[C@H](OC)[C@@H](O)[C@H](C)O4)[C@H](C)O3)[C@@H](C)/C=C\C=C3CO[C@@H]4[C@H](O)C(C)=C[C@@H](C(=O)O1)[C@]34O)O2 (tested in a mixture with another compound),inconclusive: 39.8 µM [decreasing],
C=C1C(=O)O[C@@H]2[C@H]3O[C@]3(C)CCC=C(C)CC[C@@H]12,inconclusive: 39.8 µM [decreasing],
Cc1ccc2nsnc2c1N(S(C)(=O)=O)S(C)(=O)=O,inconclusive: 15.8 µM [decreasing],
CNC(=O)c1c(NC(=O)c2nc3ccccc3s2)sc2c1CCC2,active: 0.631 µM,
CC[C@@](N)(C(=O)O)c1ccc(C(=O)O)cc1,inconclusive: 39.8 µM [decreasing],
CCN(CCCNC(=O)C1CCN(S(=O)(=O)c2cccc3nonc23)CC1)Cc1ccccc1,active: 20 µM,
c1ccc(CCc2nn3c(Cn4cnc5ccccc54)nnc3s2)cc1,inconclusive: 39.8 µM [decreasing],
c1ccc2c(c1)Cc1cc3ccccc3nc1-2,inconclusive: 20 µM [decreasing],
COc1cc2c(cc1OC)C(=O)Cc1ccc3c(c1CN(C)CC2)OCO3,inconclusive: 39.8 µM [decreasing],
COc1cc(C2Nc3cccc4cccc(c34)N2)ccc1OC(C)=O,,inactive: -15.7%
CCC(=O)Nc1ccc(NC(=O)c2cc3ccccc3o2)cc1,,inactive: 91.3%
COc1ccc2c(c1)CCC1[C@@H]2CCC2(C)[C@@H](NCCCCCCN3C(=O)C=CC3=O)CC[C@@H]12 (stereo partly specified),inconclusive: 39.8 µM [decreasing],
COc1c(O)cc2oc3cc(O)c(CC=C(C)C)c(O)c3c(=O)c2c1CC=C(C)C,inconclusive: 39.8 µM [decreasing],
CCN1CCN(c2nc3ccccc3nc2C(C#N)C(=O)OC2CCCCC2)CC1 (stereo unspecified),active: 0.794 µM,
COc1ccc2[nH]cc(CCNc3ccnc(-c4ccccc4C)n3)c2c1,active: 15.8 µM,
OC[C@@H]1O[C@@H](n2cnc3c(N[C@H]4CCC[C@@H]4O)ncnc32)[C@H](O)[C@H]1O,inconclusive: 39.8 µM [decreasing],

SMILES,Potency,"activity change, negative = inhibition"
NC(=O)c1sc2nc3c(c(-c4ccco4)c2c1N)CCC3,active: 15.8 µM,
Cc1cccc(CNc2ncnc3ccc(-c4cccc(NS(C)(=O)=O)c4)cc23)c1,,inactive: 107%
CCC(=O)Nc1cccc(-c2nc3ccccc3c(=O)o2)c1,,inactive: 1.4%
CNc1cccccc1=S,inconclusive: 31.6 µM [decreasing],
CCNc1nc(N)c(C(=O)c2ccc(Cl)s2)s1,inconclusive: 31.6 µM [decreasing],
CCOC(OCC)P(=O)(O)CCCNCc1ccc(Cl)c(Cl)c1,inconclusive: 39.8 µM [decreasing],
CCc1cc2cc(C(=O)Nc3ccccc3F)sc2s1,,inactive: 152%
O=C(Nc1ncc(C(F)(F)F)cc1Cl)C1COc2ccccc2O1 (stereo unspecified),,inactive: -2.9%
Cn1cc(-c2nc3cncnc3n(CCN)c2=O)c2ccccc21,,inactive: 89.9%
CC(=O)N1CCN(c2ccccc2NC(=O)COc2ccc(Cl)cc2Cl)CC1,,inactive: 14.8%
COc1ccc(-c2nnc(N(C)C(=O)c3cccnc3)s2)cc1,,inactive: 4.4%
COc1ccc2[nH]cc(CCNc3ccnc(-c4ccc5c(c4)OCO5)n3)c2c1,inconclusive: 20 µM [decreasing],
O=C(O)COc1ccc(OCCNC[C@@H](O)COc2ccccc2)cc1,inconclusive: 39.8 µM [decreasing],
COc1ccccc1-c1cc(=O)c2cc(O)ccc2o1,inconclusive: 20 µM [decreasing],
O=c1c2c3nc4ccccc4nc3n(-c3cccc(F)c3)c2ncn1Cc1ccc2c(c1)OCO2,active: 3.16 µM,
COc1ccc(S(=O)(=O)N(C)CC(=O)NCc2cccnc2)cc1C,inconclusive: 6.31 µM [decreasing],
O=C1C(c2ccccn2)=[N+]([O-])c2ccccc21,inconclusive: 39.8 µM [decreasing],
COc1ccc(NC2=NC3(CCCCC3)N=C(N)N2)cc1,,inactive: 14.9%
C/C(=N\O)c1ccc(N2C(=O)C3CC=C(Cl)CC3C2=O)cc1 (stereo unspecified),active: 3.16 µM,
Cc1nc2cnc(N3CCN(C)CC3)nc2n(C2CC2)c1=O,inconclusive: 39.8 µM [decreasing],
O=c1cnc2cnc(N3CCNCC3)nc2n1C1CC1,,inactive: 9.7%
COc1ccc(-c2ncc3ccccn23)cc1,active: 20 µM,
Cc1ccc(C)c(N(C)S(=O)(=O)c2cccc3nsnc23)c1,inconclusive: 31.6 µM [decreasing],
CN1CCN(CC(=O)Nc2ccc(Oc3ccccc3)cc2)CC1,inconclusive: 20 µM [decreasing],
COC(=O)c1c(-c2cc(OC)c(OC)c(OC)c2)c2ccnc(OCc3ncccn3)c2c(=O)n1Cc1ccnc(C)c1,inconclusive: 39.8 µM [decreasing],
